# Assay results from PubChem BioAssay AID1768 (National Center for Advancing Translational Sciences (NCATS), 2009).
# Among all 270,000 compounds or so, about 620 (0.23%) were called active. The inconclusive results got no clear call from the source; some entries with a clear call stand among them for comparison. Calls come from the whole dose curve; as a rule, active = well fitted inhibition curve with a large enough effect in the polarisation, with a control signal flat (not every such curve was filed as active); inconclusive = small, poorly fitted or top-dose-only effect, or effect the other way, or a change in a side signal; inactive = no such curve, though single readings can be large or run the other way; the % refers to the polarisation. A potency beside an inconclusive call is a rough fit, not a confirmed value. “Side channel” marks fits to a control or component signal instead of the main read-out.
# Molecular target: Menin (Homo sapiens) (UniProt O00255)
# Assay: qHTS Assay for Inhibitors Targeting the Menin-MLL Interaction in MLL Related Leukemias: Competition With Texas Red Labeled MLL-derived Mutant Peptide; for FP activity change, negative = inhibition: % of control where 0% means no effect
# Details: fluorescence polarization; FP activity change, negative = inhibition: at 61.6 µM (top of the series)
# Potency is the fitted concentration of half-maximal effect; tags give direction and shape of the fitted curve or compound fluorescence and quenching.
# Sequence of UniProt O00255 (O00255 whole entry, looked up): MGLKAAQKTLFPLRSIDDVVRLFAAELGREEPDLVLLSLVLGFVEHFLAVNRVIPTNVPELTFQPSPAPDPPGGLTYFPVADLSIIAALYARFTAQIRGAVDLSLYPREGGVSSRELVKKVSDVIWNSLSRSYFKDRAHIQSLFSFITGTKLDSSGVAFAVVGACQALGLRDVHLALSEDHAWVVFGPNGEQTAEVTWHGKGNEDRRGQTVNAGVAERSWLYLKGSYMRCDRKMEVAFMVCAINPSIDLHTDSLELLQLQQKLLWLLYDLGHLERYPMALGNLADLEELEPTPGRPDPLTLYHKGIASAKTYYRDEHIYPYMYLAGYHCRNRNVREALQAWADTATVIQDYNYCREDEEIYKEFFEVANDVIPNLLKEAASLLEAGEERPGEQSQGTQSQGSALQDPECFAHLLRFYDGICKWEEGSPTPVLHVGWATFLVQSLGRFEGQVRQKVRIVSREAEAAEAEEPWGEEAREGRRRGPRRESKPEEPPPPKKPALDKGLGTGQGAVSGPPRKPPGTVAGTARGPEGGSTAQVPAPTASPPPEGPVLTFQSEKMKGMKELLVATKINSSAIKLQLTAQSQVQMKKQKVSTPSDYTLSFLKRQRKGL
SMILES,Potency,"FP activity change, negative = inhibition"
COc1ccc(CCNC(=O)CSc2nc(O)c(CCC(C)C)c(=O)[nH]2)cc1OC,"inconclusive: 6.31 µM [quencher, side channel, single point]",–
COc1ccc(C)cc1NC(=O)c1nnn(Cc2cccc(C(F)(F)F)c2)c1N,"inconclusive: 3.16 µM [quencher, side channel, single point]",–
Cc1nc2ccc([N+](=O)[O-])cc2c(=O)n1Cc1ccc(Br)cc1,"inconclusive: 17.8 µM [quencher, side channel, partial curve]",–
COCC1CCCN(Cc2cn(Cc3ccccc3)nc2-c2cc3ccccc3o2)C1 (stereo not given),"inconclusive: 1.58 µM [fluorescent, side channel, full curve]",–
CN(C)c1ccc(-c2nc(-n3ccnc3)c3ccccc3n2)cc1,"inconclusive: 11.2 µM [quencher, side channel, partial curve]",–
O=Cc1ccc(Sc2nnc(-c3ccccc3)o2)c([N+](=O)[O-])c1,"inconclusive: 20 µM [quencher, side channel, single point]",–
Cn1c(=O)n(C)c2cc(S(=O)(=O)N3CCOCC3)ccc21,"inconclusive: 20 µM [inhibitor, single point]",–
Cc1ccc(-c2noc(Cn3nc(C(=O)O)c4ccccc4c3=O)n2)cc1,"inconclusive: 0.355 µM [quencher, side channel, full curve, poor fit]",–
Cc1ccc(N/N=C2\CC(=O)c3ccccc32)cc1Cl,"inconclusive: 14.1 µM [quencher, side channel, partial curve]",–
Cc1cc(Cl)ccc1OCCCC(=O)N1CCCCC1,"inconclusive: 15.8 µM [fluorescent, side channel, partial curve]",–
Cc1ccc(NC(=O)CCc2nc(-c3cccs3)no2)c(Br)c1,"inconclusive: 12.6 µM [inhibitor, partial curve]",–
COc1ccccc1C1NC(c2ccccc2OC)C(C)C(=O)C1C (stereo not given),"inconclusive: 31.6 µM [fluorescent, side channel, single point]",–
O=C(CC(c1ccccc1)c1ccccc1)NCC(O)c1ccc([N+](=O)[O-])cc1 (stereo not given),"inconclusive: 15.8 µM [quencher, side channel, single point]",–
O=C(O)c1cc(NC(=S)NC(=O)C(c2ccccc2)c2ccccc2)ccc1Cl,"inconclusive: 12.6 µM [quencher, side channel, partial curve]",–
COc1ccc(Cl)cc1NC(=O)C1Cc2ccccc2CN1S(C)(=O)=O (stereo not given),"inconclusive: 31.6 µM [quencher, side channel, single point]",–
N=C1S/C(=C\c2ccc(-c3cccc(Cl)c3)o2)C(=O)N1c1nccs1,"inconclusive: 8.91 µM [quencher, side channel, partial curve]",–
CC(C)[C@@H]1[C@H]2CC[C@H](C2)[C@H]1N,"inconclusive: 3.55 µM [inhibitor, full curve, poor fit]",–
CCCCCCCCCCCCCCCCCCOC[C@H](COP(=O)([O-])OCC[N+](C)(C)C)OC,"inconclusive: 20 µM [inhibitor, partial curve]",–
C/C(=N\Nc1ccc(S(=O)(=O)Nc2ccccc2)cc1[N+](=O)[O-])c1ccc(N2CCOCC2)cc1,"inconclusive: 5.01 µM [quencher, side channel, full curve]",–
CCCOc1ccc2oc(=O)c3c(c2c1)CCCN3C(=O)CN1CCc2ccccc2C1,"inconclusive: 7.94 µM [fluorescent, side channel, full curve, poor fit]",–
CCC1CCCCN1CCNC(=O)CNS(=O)(=O)c1ccc2nc(C)sc2c1 (stereo not given),"inconclusive: 5.01 µM [inhibitor, full curve]",–
COc1ccc(O)c(/C=N/NC(=S)Nc2cccnc2)c1,"inconclusive: 14.1 µM [quencher, side channel, partial curve]",–
O=S(=O)(c1ccc(NC(=S)N/N=C/c2ccc(Oc3ccccc3)cc2)cc1)N1CCOCC1,"inconclusive: 7.08 µM [inhibitor, full curve]",–
CC(=O)Nc1ccc(Nc2cc(C)nc3c(-c4ccccc4)c(C)nn23)cc1,"inconclusive: 28.2 µM [quencher, side channel, single point]",–
CC1(C)CC(=O)C(C2NCCc3ccccc32)=C(O)C1 (stereo not given),"inconclusive: 39.8 µM [quencher, side channel, single point]",–
Cc1ccc(NC2c3ncccc3C(=O)N2C2CCCCC2)cc1 (stereo not given),"inconclusive: 8.91 µM [inhibitor, full curve]",–
CC(=O)c1ccc(N2CCN(CC(O)COC(c3ccccc3)c3ccccc3C)CC2)cc1 (stereo not given),"inconclusive: 3.55 µM [inhibitor, partial curve]",–
O=C1C2C3C=CC(CC3)C2C(=O)N1/N=C/c1ccc(O)c(O)c1 (stereo not given),–,inactive: -11.6%

SMILES,Potency,"FP activity change, negative = inhibition"
Cc1ccc(S(=O)(=O)N(CC(=O)N2CCN(c3ccc(F)cc3)CC2)C2CCCCC2)cc1,"inconclusive: 5.62 µM [inhibitor, single point]",–
Cc1cc2nc(/C(C#N)=C\c3ccc(-c4ccccc4C(=O)O)o3)[nH]c2cc1C,"inconclusive: 12.6 µM [quencher, side channel, partial curve]",–
COc1ccc(CNC(=O)CSc2nnc(NC(=O)c3ccccc3F)s2)cc1,"inconclusive: 39.8 µM [fluorescent, side channel, single point]",–
Cc1cccc(-n2ccc(=O)c(C(=O)Nc3ccc(S(=O)(=O)Nc4nccs4)cc3)n2)c1,"inconclusive: 22.4 µM [quencher, side channel, partial curve, poor fit]",–
C=CCNCCCOc1ccc(Cl)cc1C(C)(C)C,"inconclusive: 2.24 µM [fluorescent, side channel, full curve]",–
CNc1ccc(C(=O)Oc2cc(O/N=[N+](\[O-])N(C)C)c([N+](=O)[O-])cc2[N+](=O)[O-])cc1,"inconclusive: 31.6 µM [quencher, side channel, single point]",–
CC(=O)Nc1ccc(-c2cn3ccsc3n2)cc1,–,inactive: 7%
COc1ccc(C(=O)OCC(=O)Nc2ccccc2)cc1[N+](=O)[O-],"inconclusive: 28.2 µM [quencher, side channel, single point]",–
COc1ccc(-c2nc(=S)c3c([nH]2)Oc2ccc(C)cc2C3)cc1O,"inconclusive: 3.16 µM [quencher, side channel, single point]",–
COc1ccccc1NC(=O)COc1ccc(Br)cc1CNC1CCCC1,"inconclusive: 3.16 µM [fluorescent, side channel, full curve]",–
CC(C)COc1cccc(C(=O)Nc2ccc(CN3CCOCC3)cc2)c1,"inconclusive: 10 µM [inhibitor, full curve]",–
N#C/C(=C\c1sc(N2CCOCC2)nc1-c1ccccc1)C(=O)Nc1cccc2ccccc12,–,inactive: -4.08%
O=C(Nc1cccc2ccccc12)c1ccc(OC(=S)N2CCOCC2)cc1,"inconclusive: 6.31 µM [quencher, side channel, partial curve]",–
COc1ccc(-n2c(SCc3ccc(C#N)cc3)nnc2-c2ccccn2)cc1,"inconclusive: 28.2 µM [fluorescent, side channel, single point]",–
CC1=NN(c2ccccc2)C(=O)C1N=Nc1cccc(O)c1 (stereo not given),"inconclusive: 17.8 µM [quencher, partial curve]",–
COc1ccc(Nc2ccc(Cl)cc2)c(C(=O)O)c1,"inconclusive: 25.1 µM [quencher, side channel, partial curve]",–
Cc1cccc(-c2ncc(CN3CCC(CO)(CCCc4ccccc4)CC3)cn2)c1,"inconclusive: 17.8 µM [fluorescent, side channel, partial curve]",–
N#Cc1c(C(F)(F)F)cc(-c2ccco2)nc1SCc1ccccn1,–,inactive: -4.23%
CCOC(=O)CCCSc1nnc(CCCCCN2C(=O)c3cccc4cccc(c34)C2=O)o1,"inconclusive: 2.82 µM [fluorescent, side channel, full curve, poor fit]",–
COc1cc2c(cc1OC)C(C)N(S(=O)(=O)c1ccc(C)cc1)CC2 (stereo not given),"inconclusive: 11.2 µM [inhibitor, partial curve, poor fit]",–
COc1ccc(-c2ccc(NS(=O)(=O)c3cc([N+](=O)[O-])c(C)c([N+](=O)[O-])c3)cc2)nn1,"inconclusive: 22.4 µM [quencher, side channel, single point]",–
Cc1cc(C(=O)CCl)c(C)n1CCc1ccc(Cl)cc1,"inconclusive: 17.8 µM [fluorescent, side channel, partial curve]",–
CCOc1ccc(C(=O)Nc2ccc(NC(=O)c3ccccc3)cc2)cc1Br,"inconclusive: 14.1 µM [fluorescent, side channel, partial curve]",–
COc1ccc(N2C(=O)C3C(c4ccc(C(=O)O)cc4)NC(Cc4ccccc4)(C(=O)O)C3C2=O)c([N+](=O)[O-])c1 (stereo not given),"inconclusive: 14.1 µM [quencher, side channel, partial curve]",–
Oc1c(Br)cc(Br)cc1C=Nc1cccnc1,"inconclusive: 15.8 µM [quencher, side channel, single point]",–
Cc1ccc(C(=O)Nc2nnc(S(=O)(=O)Nc3ccccc3C)s2)cc1C,"inconclusive: 22.4 µM [quencher, single point]",–
CCOC(=O)c1c2ccc(OCC(=O)N/N=C/c3ccc(C)cc3)cc2n2ccccc12,"inconclusive: 3.16 µM [quencher, side channel, partial curve]",–
